IC50 is the fitted dose that halves viability relative to control wells, and lower means more sensitive; where the fit passes the top or lowest dose, that dose stands as a limit. The AUC spans the tested range (256-fold, ending at the top dose) of the same fit; values near 1 show little effect. A top dose marked as inferred comes from the curve model; the source does not state it.
The cell lines below were run with Cn1cc(C2=C(c3cn(C4CCN(Cc5ccccn5)CC4)c4ccccc34)C(=O)NC2=O)c2ccccc21 [LY317615] (assay: Viability of human cancer cell lines after 72 h of drug (GDSC screen)). Conditions: top dose inferred.
Experimental: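 Human cancer cell lines in 384-well plates, medium with 10% serum, drug for 72 h over a 256-fold dose range (nine 2-fold or five 4-fold steps up to the top dose). Adherent lines were fixed and stained with the nucleic acid dye Syto60, suspension lines read with resazurin; signal relative to control wells, capped at 0 and 100%. One two-parameter sigmoid per drug and line, fitted in a mixed model over all curves with the slope shared within a line.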

| Cell Line | AUC | IC50 |
| --- | --- | --- |
| GRANTA-519 (B-cell lymphoma, suspension, top dose 20 µM) | 0.732 | 5.26 µM |
| NCI-H1838 (lung adenocarcinoma, adherent, top dose 20 µM) | 0.941 | > 20 µM |
| H2818 (mesothelioma, adherent, top dose 20 µM) | 0.967 | > 20 µM |
| KYSE-50 (oesophagus, adherent, top dose 20 µM) | 0.779 | 7.45 µM |
| AN3-CA (endometrium, adherent, top dose 20 µM) | 0.964 | > 20 µM |
| COR-L88 (small cell lung carcinoma, adherent, top dose 20 µM) | 0.904 | > 20 µM |
| BB65-RCC (kidney, adherent, top dose 20 µM) | 0.709 | 5.38 µM |
| RCC-ER (kidney, adherent, top dose 20 µM) | 0.587 | 2.23 µM |
| CTB-1 (B-cell lymphoma, suspension, top dose 20 µM) | 0.784 | 11.9 µM |
| TGW (neuroblastoma, adherent, top dose 20 µM) | 0.91 | > 20 µM |
| GMS-10 (glioma, adherent, top dose 20 µM) | 0.987 | > 20 µM |
| PCI-6A (head and neck, adherent, top dose 20 µM) | 0.796 | 9.17 µM |
| A388 (skin, adherent, top dose 20 µM) | 0.966 | > 20 µM |
| GAK (melanoma, adherent, top dose 20 µM) | 0.976 | > 20 µM |
| PA-TU-8902 (pancreas, adherent, top dose 20 µM) | 0.961 | > 20 µM |
| LCLC-103H (large cell lung carcinoma, adherent, top dose 20 µM) | 0.958 | > 20 µM |
| ASH-3 (thyroid, adherent, top dose 20 µM) | 0.988 | > 20 µM |
| HuP-T3 (pancreas, adherent, top dose 20 µM) | 0.897 | > 20 µM |
| H2869 (mesothelioma, adherent, top dose 20 µM) | 0.734 | 6.92 µM |
| SU-DHL-10 (B-cell lymphoma, suspension, top dose 20 µM) | 0.655 | 2.96 µM |

| Cell Line | AUC | IC50 |
| --- | --- | --- |
| RERF-LC-KJ (lung adenocarcinoma, adherent, top dose 20 µM) | 0.75 | 6.72 µM |
| SW948 (large intestine, adherent, top dose 20 µM) | 0.955 | > 20 µM |
| OVCA433 (ovary, adherent, top dose 20 µM) | 0.862 | > 20 µM |
| SK-N-SH (neuroblastoma, adherent, top dose 20 µM) | 0.933 | > 20 µM |
| SK-LMS-1 (soft tissue, adherent, top dose 20 µM) | 0.812 | 10.1 µM |
| MSTO-211H (mesothelioma, adherent, top dose 20 µM) | 0.991 | > 20 µM |
| NCI-H520 (lung squamous cell carcinoma, adherent, top dose 20 µM) | 0.831 | 13.3 µM |
| SNU-407 (large intestine, adherent, top dose 20 µM) | 0.932 | > 20 µM |
| KYSE-450 (oesophagus, adherent, top dose 20 µM) | 0.664 | 3.46 µM |
| G-292 Clone A141B1 (osteosarcoma, adherent, top dose 20 µM) | 0.761 | 11.7 µM |
| H2731 (mesothelioma, adherent, top dose 20 µM) | 0.96 | > 20 µM |
| P12-ICHIKAWA (T-cell lymphoblastic leukaemia, suspension, top dose 20 µM) | 0.569 | 1.84 µM |
| NCI-H64 (small cell lung carcinoma, suspension, top dose 20 µM) | 0.931 | 18.3 µM |
| LU-99A (large cell lung carcinoma, adherent, top dose 20 µM) | 0.973 | > 20 µM |
| NCI-H226 (lung squamous cell carcinoma, adherent, top dose 20 µM) | 0.873 | > 20 µM |
| RD (rhabdomyosarcoma, adherent, top dose 20 µM) | 0.945 | > 20 µM |
| CAKI-1 (kidney, adherent, top dose 20 µM) | 0.61 | 2.92 µM |
| Caov-3 (ovary, adherent, top dose 20 µM) | 0.937 | > 20 µM |
| CAPAN-1 (pancreas, adherent, top dose 20 µM) | 0.765 | 8.08 µM |
| NCI-H2029 (small cell lung carcinoma, adherent, top dose 20 µM) | 0.985 | > 20 µM |

Source: the supplement of paper PMC4967469
